# Some of the results follow.
# B1: GS13455A-bfa-343-25-343 (Bacteroides fragilis) (protein)
# chain: KDEIQIVDQDTSWQMDNKYIEEDIREQLGIDPFTDLVYLGYYGNPYTQLEAINDLVNTTLVGKNELSFKVKVTKPYKEDIKVNLMKEDKLVTDFPEMAEGIPLFPSENCTFEGGVLKAGELETTVKLTLKDVEKLNNLSGYVMAIKLTMEGSHEHLAIARTRSSYFVKLNLSIRLDNIDSSNKKIEGKGFNKEISFKSDIRPDKLGSLNDGNFTANNWYTSNANNYLTIILPEKQSLKGFRLDTNTSPSGSYMLKSCRVMVETPDGNWVNHGVFDRKSMDGIAYISFKKPVECTKVRFENMMAFNGRFSVDVNEVTAFR
# Assays:
# Assay in all cases: glycan array binding signal (z-score within array); higher = stronger binding
# Conditions in all cases: glycan notation: IUPAC condensed, linker removed
# [1] = target: Neu5Ac(a2-3)Gal(b1-4)GlcNAc(b1-6)GalNAc
# Method in brief: (§1)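 Glycan array data came from 3228 arrays in the Consortium for Functional Glycomics database, and only arrays with an available protein sequence were kept. Glycan names were put into IUPAC-condensed notation, and columns mapping to the same glycan were averaged. The binding signal is a within-array Z-score, averaged across arrays of one protein sequence run at different concentrations or buffers and across linkers. A negative Z-score can be read as non-binding.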
# [2] = target: Neu5Ac(a2-3)Gal(b1-4)GlcNAc(b1-6)[Gal(b1-3)]GalNAc
# Method in brief: as §1
# [3] = target: Neu5Ac(a2-3)Gal(b1-4)GlcNAc(b1-6)[Neu5Ac(a2-3)Gal(b1-3)]GalNAc
# Method in brief: as §1
# [4] = target: Neu5Ac(a2-3)Gal(b1-4)GlcNAc6S
# Method in brief: as §1
# [5] = target: Neu5Ac(a2-3)Gal(b1-4)[Fuc(a1-3)]GlcNAc
# Method in brief: as §1
# [6] = target: Neu5Ac(a2-3)Gal(b1-4)[Fuc(a1-3)]GlcNAc(b1-2)Man
# Method in brief: as §1
# [7] = target: Neu5Ac(a2-3)Gal(b1-4)[Fuc(a1-3)]GlcNAc(b1-3)Gal
# Method in brief: as §1
# [8] = target: Neu5Ac(a2-3)Gal(b1-4)[Fuc(a1-3)]GlcNAc(b1-3)Gal(b1-4)GlcNAc
# Method in brief: as §1
# [9] = target: Neu5Ac(a2-3)Gal(b1-4)[Fuc(a1-3)]GlcNAc(b1-3)Gal(b1-4)[Fuc(a1-3)]GlcNAc(b1-3)Gal(b1-4)[Fuc(a1-3)]GlcNAc
# Method in brief: as §1
# [10] = target: Neu5Ac(a2-3)Gal(b1-4)[Fuc(a1-3)]GlcNAc(b1-3)GalNAc
# Method in brief: as §1
# [11] = target: Neu5Ac(a2-3)Gal(b1-4)[Fuc(a1-3)]GlcNAc(b1-6)[Gal(b1-3)]GalNAc
# Method in brief: as §1
# [12] = target: Neu5Ac(a2-3)Gal(b1-4)[Fuc(a1-3)]GlcNAc(b1-6)[Neu5Ac(a2-3)Gal(b1-3)]GalNAc
# Method in brief: as §1
# [13] = target: Neu5Ac(a2-3)Gal(b1-4)[Fuc(a1-3)]GlcNAc6S
# Method in brief: as §1
# [14] = target: Neu5Ac(a2-3)Gal6S(b1-4)GlcNAc
# Method in brief: as §1
# [15] = target: Neu5Ac(a2-3)Gal6S(b1-4)[Fuc(a1-3)]GlcNAc
# Method in brief: as §1
# Neu5Ac(a2-3)GalNAc = target: Neu5Ac(a2-3)GalNAc
# Method in brief: as §1
# [16] = target: Neu5Ac(a2-3)GalNAc(b1-4)GlcNAc
# Method in brief: as §1
# [17] = target: Neu5Ac(a2-3)[GalNAc(b1-4)]Gal(b1-4)Glc
# Method in brief: as §1
# [18] = target: Neu5Ac(a2-3)[GalNAc(b1-4)]Gal(b1-4)GlcNAc
# Method in brief: as §1
# [19] = target: Neu5Ac(a2-3)[GalNAc(b1-4)]Gal(b1-4)GlcNAc(b1-3)GalNAc
# Method in brief: as §1
# [20] = target: Neu5Ac(a2-3)[Neu5Ac(a2-6)]GalNAc
# Method in brief: as §1
# Neu5Ac(a2-6)Gal = target: Neu5Ac(a2-6)Gal
# Method in brief: as §1
# [21] = target: Neu5Ac(a2-6)Gal(b1-3)GlcNAc(b1-3)[Gal(b1-4)GlcNAc(b1-6)]Gal(b1-4)Glc
# Method in brief: as §1
# Neu5Ac(a2-6)Gal(b1-4)Glc = target: Neu5Ac(a2-6)Gal(b1-4)Glc
# Method in brief: as §1
# [22] = target: Neu5Ac(a2-6)Gal(b1-4)GlcNAc
# Method in brief: as §1
# [23] = target: Neu5Ac(a2-6)Gal(b1-4)GlcNAc(b1-2)Man
# Method in brief: as §1
# [24] = target: Neu5Ac(a2-6)Gal(b1-4)GlcNAc(b1-2)Man(a1-3)Man(b1-4)GlcNAc(b1-4)GlcNAc
# Method in brief: as §1
# [25] = target: Neu5Ac(a2-6)Gal(b1-4)GlcNAc(b1-2)Man(a1-3)[Gal(b1-4)GlcNAc(b1-2)Man(a1-6)]Man(b1-4)GlcNAc(b1-4)GlcNAc
# Method in brief: as §1
# [26] = target: Neu5Ac(a2-6)Gal(b1-4)GlcNAc(b1-2)Man(a1-3)[GlcNAc(b1-2)Man(a1-6)]Man(b1-4)GlcNAc(b1-4)GlcNAc
# Method in brief: as §1
# [27] = target: Neu5Ac(a2-6)Gal(b1-4)GlcNAc(b1-2)Man(a1-3)[GlcNAc(b1-4)][Neu5Ac(a2-6)Gal(b1-4)GlcNAc(b1-2)Man(a1-6)]Man(b1-4)GlcNAc(b1-4)GlcNAc
# Method in brief: as §1
# [28] = target: Neu5Ac(a2-6)Gal(b1-4)GlcNAc(b1-2)Man(a1-3)[Man(a1-6)]Man(b1-4)GlcNAc(b1-4)GlcNAc
# Method in brief: as §1
binder,measurement,setting,value
B1,glycan array binding signal (z-score),[1],-0.227
same,glycan array binding signal (z-score),[2],-0.414
same,glycan array binding signal (z-score),[3],0.024
same,glycan array binding signal (z-score),[4],-0.101
same,glycan array binding signal (z-score),[5],0.334
same,glycan array binding signal (z-score),[6],-0.091
same,glycan array binding signal (z-score),[7],0.259
same,glycan array binding signal (z-score),[8],1.02
same,glycan array binding signal (z-score),[9],0.745
same,glycan array binding signal (z-score),[10],3.25
same,glycan array binding signal (z-score),[11],0.589
same,glycan array binding signal (z-score),[12],0.052
same,glycan array binding signal (z-score),[13],-0.142
same,glycan array binding signal (z-score),[14],-0.061
same,glycan array binding signal (z-score),[15],-0.398
same,glycan array binding signal (z-score),Neu5Ac(a2-3)GalNAc,-0.681
same,glycan array binding signal (z-score),[16],0.281
same,glycan array binding signal (z-score),[17],-0.361
same,glycan array binding signal (z-score),[18],0.266
same,glycan array binding signal (z-score),[19],-0.526
same,glycan array binding signal (z-score),[20],0.32
same,glycan array binding signal (z-score),Neu5Ac(a2-6)Gal,-0.078
same,glycan array binding signal (z-score),[21],-0.125
same,glycan array binding signal (z-score),Neu5Ac(a2-6)Gal(b1-4)Glc,-0.17
same,glycan array binding signal (z-score),[22],-0.07
same,glycan array binding signal (z-score),[23],-0.322
same,glycan array binding signal (z-score),[24],-0.044
same,glycan array binding signal (z-score),[25],-0.38
same,glycan array binding signal (z-score),[26],0.878
same,glycan array binding signal (z-score),[27],-0.534
same,glycan array binding signal (z-score),[28],0.055

# From the supplement of paper PMC8728848
